{
  "source": "the supplement of paper PMC8728848",
  "binders": {"B1": {"name": "MpL2 (Macrolepiota procera) (protein)", "chain": "MSTQVSSGQTYKITNVKAGTVIDLSGEDNKSIIGYPYHSGKNQQWTFNWTGKAWTLRSASSGSYLGIEGTPADGTRLVAVNDPFEWHIWRDEANENAFRIFVPFTNYNLRLSGYGDTTPGTPVQLWWTWEGLHQTWTIDRP"}},
  "test_in_all_cases": "glycan array binding signal (z-score within array); higher = stronger binding",
  "conditions_in_all_cases": "glycan notation: IUPAC condensed, linker removed; mutation: D109R",
  "key": {"[1]": {"molecular_target": "Gal(b1-4)GlcNAc(b1-3)Gal(b1-4)GlcNAc(b1-3)Gal(b1-4)GlcNAc(b1-3)Gal(b1-4)GlcNAc(b1-2)Man(a1-3)[Gal(b1-4)GlcNAc(b1-3)Gal(b1-4)GlcNAc(b1-3)Gal(b1-4)GlcNAc(b1-3)Gal(b1-4)GlcNAc(b1-2)Man(a1-6)]Man(b1-4)GlcNAc(b1-4)GlcNAc", "summary_of_the_method": "(§1)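 The binding signal is a Z-score computed within each array and averaged over linkers. Arrays of the same protein sequence at different concentrations or buffers were also averaged together. Data originate from 3228 arrays in the Consortium for Functional Glycomics database, kept only where the protein sequence was available.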"}, "[2]": {"molecular_target": "Gal(b1-4)GlcNAc(b1-3)Gal(b1-4)GlcNAc(b1-3)Gal(b1-4)GlcNAc(b1-3)Gal(b1-4)GlcNAc(b1-2)Man(a1-3)[Gal(b1-4)GlcNAc(b1-3)Gal(b1-4)GlcNAc(b1-3)Gal(b1-4)GlcNAc(b1-3)Gal(b1-4)GlcNAc(b1-2)Man(a1-6)]Man(b1-4)GlcNAc(b1-4)[Fuc(a1-6)]GlcNAc", "summary_of_the_method": "as §1"}, "[3]": {"molecular_target": "Gal(b1-4)GlcNAc(b1-3)Gal(b1-4)GlcNAc(b1-3)Gal(b1-4)GlcNAc(b1-3)Gal(b1-4)GlcNAc(b1-2)[Gal(b1-4)GlcNAc(b1-3)Gal(b1-4)GlcNAc(b1-3)Gal(b1-4)GlcNAc(b1-3)Gal(b1-4)GlcNAc(b1-6)]Man(a1-6)[Gal(b1-4)GlcNAc(b1-3)Gal(b1-4)GlcNAc(b1-3)Gal(b1-4)GlcNAc(b1-3)Gal(b1-4)GlcNAc(b1-2)Man(a1-3)]Man(b1-4)GlcNAc(b1-4)[Fuc(a1-6)]GlcNAc", "summary_of_the_method": "as §1"}, "[4]": {"molecular_target": "Gal(b1-4)GlcNAc(b1-3)Gal(b1-4)GlcNAc(b1-3)Gal(b1-4)GlcNAc(b1-3)Gal(b1-4)GlcNAc(b1-3)Gal(b1-4)GlcNAc(b1-2)Man(a1-3)[Gal(b1-4)GlcNAc(b1-3)Gal(b1-4)GlcNAc(b1-3)Gal(b1-4)GlcNAc(b1-3)Gal(b1-4)GlcNAc(b1-3)Gal(b1-4)GlcNAc(b1-2)Man(a1-6)]Man(b1-4)GlcNAc(b1-4)GlcNAc", "summary_of_the_method": "as §1"}, "[5]": {"molecular_target": "Gal(b1-4)GlcNAc(b1-3)Gal(b1-4)GlcNAc(b1-3)Gal(b1-4)GlcNAc(b1-3)Gal(b1-4)GlcNAc(b1-3)Gal(b1-4)GlcNAc(b1-2)Man(a1-3)[Gal(b1-4)GlcNAc(b1-3)Gal(b1-4)GlcNAc(b1-3)Gal(b1-4)GlcNAc(b1-3)Gal(b1-4)GlcNAc(b1-3)Gal(b1-4)GlcNAc(b1-2)Man(a1-6)]Man(b1-4)GlcNAc(b1-4)[Fuc(a1-6)]GlcNAc", "summary_of_the_method": "as §1"}, "[6]": {"molecular_target": "Gal(b1-4)GlcNAc(b1-3)Gal(b1-4)GlcNAc(b1-3)Gal(b1-4)GlcNAc(b1-3)Gal(b1-4)GlcNAc(b1-3)Gal(b1-4)GlcNAc(b1-2)[Gal(b1-4)GlcNAc(b1-3)Gal(b1-4)GlcNAc(b1-3)Gal(b1-4)GlcNAc(b1-3)Gal(b1-4)GlcNAc(b1-3)Gal(b1-4)GlcNAc(b1-6)]Man(a1-6)[Gal(b1-4)GlcNAc(b1-3)Gal(b1-4)GlcNAc(b1-3)Gal(b1-4)GlcNAc(b1-3)Gal(b1-4)GlcNAc(b1-3)Gal(b1-4)GlcNAc(b1-2)Man(a1-3)]Man(b1-4)GlcNAc(b1-4)[Fuc(a1-6)]GlcNAc", "summary_of_the_method": "as §1"}, "[7]": {"molecular_target": "Gal(b1-4)GlcNAc(b1-3)Gal(b1-4)GlcNAc(b1-3)Gal(b1-4)GlcNAc(b1-3)Gal(b1-4)GlcNAc(b1-3)Gal(b1-4)GlcNAc(b1-3)Gal(b1-4)GlcNAc(b1-2)Man(a1-3)[Gal(b1-4)GlcNAc(b1-3)Gal(b1-4)GlcNAc(b1-3)Gal(b1-4)GlcNAc(b1-3)Gal(b1-4)GlcNAc(b1-3)Gal(b1-4)GlcNAc(b1-3)Gal(b1-4)GlcNAc(b1-2)Man(a1-6)]Man(b1-4)GlcNAc(b1-4)GlcNAc", "summary_of_the_method": "as §1"}, "[8]": {"molecular_target": "Gal(b1-4)GlcNAc(b1-3)Gal(b1-4)GlcNAc(b1-3)GalNAc", "summary_of_the_method": "as §1"}, "[9]": {"molecular_target": "Gal(b1-4)GlcNAc(b1-3)Gal(b1-4)GlcNAc(b1-3)[Gal(b1-4)GlcNAc(b1-3)Gal(b1-4)GlcNAc(b1-6)]GalNAc", "summary_of_the_method": "as §1"}, "[10]": {"molecular_target": "Gal(b1-4)GlcNAc(b1-3)Gal(b1-4)GlcNAc(b1-6)[Gal(b1-3)]GalNAc", "summary_of_the_method": "as §1"}, "[11]": {"molecular_target": "Gal(b1-4)GlcNAc(b1-3)Gal(b1-4)[Fuc(a1-3)]GlcNAc(b1-3)Gal(b1-4)[Fuc(a1-3)]GlcNAc", "summary_of_the_method": "as §1"}, "[12]": {"molecular_target": "Gal(b1-4)GlcNAc(b1-3)GalNAc", "summary_of_the_method": "as §1"}, "[13]": {"molecular_target": "Gal(b1-4)GlcNAc(b1-3)[Fuc(a1-3)GlcNAc(b1-6)]Gal(b1-4)Glc", "summary_of_the_method": "as §1"}, "[14]": {"molecular_target": "Gal(b1-4)GlcNAc(b1-3)[Gal(b1-4)GlcNAc(b1-6)]Gal(b1-4)GlcNAc", "summary_of_the_method": "as §1"}, "[15]": {"molecular_target": "Gal(b1-4)GlcNAc(b1-3)[GlcNAc(b1-6)]Gal(b1-4)GlcNAc", "summary_of_the_method": "as §1"}, "[16]": {"molecular_target": "Gal(b1-4)GlcNAc(b1-6)Gal(b1-4)GlcNAc", "summary_of_the_method": "as §1"}, "[17]": {"molecular_target": "Gal(b1-4)GlcNAc(b1-6)GalNAc", "summary_of_the_method": "as §1"}, "[18]": {"molecular_target": "Gal(b1-4)GlcNAc(b1-6)[Gal(b1-3)]GalNAc", "summary_of_the_method": "as §1"}, "[19]": {"molecular_target": "Gal(b1-4)GlcNAc(b1-6)[Gal(b1-4)GlcNAc(b1-3)]GalNAc", "summary_of_the_method": "as §1"}, "Gal(b1-4)GlcNAc6P": {"molecular_target": "Gal(b1-4)GlcNAc6P", "summary_of_the_method": "as §1"}, "Gal(b1-6)Gal": {"molecular_target": "Gal(b1-6)Gal", "summary_of_the_method": "as §1"}, "Gal3S(b1-3)GalNAc": {"molecular_target": "Gal3S(b1-3)GalNAc", "summary_of_the_method": "as §1"}, "Gal3S(b1-3)GlcNAc": {"molecular_target": "Gal3S(b1-3)GlcNAc", "summary_of_the_method": "as §1"}},
  "note": "The list shows a part of the results.",
  "data": [
    {"binder": "B1", "values": [
      {"measurement": "glycan array binding signal (z-score)", "setting": "[1]", "result": 3.84},
      {"measurement": "glycan array binding signal (z-score)", "setting": "[2]", "result": 3.51},
      {"measurement": "glycan array binding signal (z-score)", "setting": "[3]", "result": 4.36},
      {"measurement": "glycan array binding signal (z-score)", "setting": "[4]", "result": 3.94},
      {"measurement": "glycan array binding signal (z-score)", "setting": "[5]", "result": 3.44},
      {"measurement": "glycan array binding signal (z-score)", "setting": "[6]", "result": 4.48},
      {"measurement": "glycan array binding signal (z-score)", "setting": "[7]", "result": 3.5},
      {"measurement": "glycan array binding signal (z-score)", "setting": "[8]", "result": -0.005},
      {"measurement": "glycan array binding signal (z-score)", "setting": "[9]", "result": 0.33},
      {"measurement": "glycan array binding signal (z-score)", "setting": "[10]", "result": -0.076},
      {"measurement": "glycan array binding signal (z-score)", "setting": "[11]", "result": 0.188},
      {"measurement": "glycan array binding signal (z-score)", "setting": "[12]", "result": -0.017},
      {"measurement": "glycan array binding signal (z-score)", "setting": "[13]", "result": 0.124},
      {"measurement": "glycan array binding signal (z-score)", "setting": "[14]", "result": 2.06},
      {"measurement": "glycan array binding signal (z-score)", "setting": "[15]", "result": 0.43},
      {"measurement": "glycan array binding signal (z-score)", "setting": "[16]", "result": 0.409},
      {"measurement": "glycan array binding signal (z-score)", "setting": "[17]", "result": 0.017},
      {"measurement": "glycan array binding signal (z-score)", "setting": "[18]", "result": 0.018},
      {"measurement": "glycan array binding signal (z-score)", "setting": "[19]", "result": 1.42},
      {"measurement": "glycan array binding signal (z-score)", "setting": "Gal(b1-4)GlcNAc6P", "result": -0.295},
      {"measurement": "glycan array binding signal (z-score)", "setting": "Gal(b1-6)Gal", "result": -0.282},
      {"measurement": "glycan array binding signal (z-score)", "setting": "Gal3S(b1-3)GalNAc", "result": -0.269},
      {"measurement": "glycan array binding signal (z-score)", "setting": "Gal3S(b1-3)GlcNAc", "result": -0.276}
    ]}
  ]
}
